PubChem BioAssay AID652104 (National Center for Advancing Translational Sciences (NCATS), 2013)
The whole screen tested about 410,000 compounds, of which about 7,200 (1.8%) were called active. Inconclusive results, whose numbers are uncertain, are shown with a selection of clear calls. Calls follow the shape of the dose curve; as a rule, active = well fitted activation curve with a large enough effect; inconclusive = small, poorly fitted or top-dose-only effect, or another doubt; inactive = no such curve, though single readings can be large or run the other way. No potency is given beside an inconclusive call; the fits are too rough.

Assay: qHTS of TDP-43 Inhibitors; also: nearly all actives have a fitted effect of over 50% in size
Details: TDP-43 expressing yeast growth rescue, BacTiter-Glo, 24 h; series mostly up to 46.1 µM
How it was run: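 Cell-based yeast growth screen: TDP-43 expression induced in galactose, inoculum OD600=0.02 after raffinose pregrowth to mid-log. Read-out BacTiter-Glo luminescence at 24 hr, 30 deg C; inhibition of toxicity seen as signal increase.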
Potency is read from the fitted curve at half-maximal effect; tags tell the direction and shape of the fitted curve.

SMILES | Potency
Cn1ncc(Cl)c1C(=O)N1CCN(c2ccc(F)cc2)CC1 | inconclusive [activator, partial curve]
CCCN(C(=O)Cc1c(C(=O)O)[nH]c2ccc(Cl)cc12)c1ccc(OCC)cc1 | inconclusive [activator, single point]
C#CCSc1nnc(-c2ccc([N+](=O)[O-])cc2)o1 | inconclusive [activator, partial curve]
C=CCn1c(SCc2c(Cl)cccc2Cl)nnc1-c1cccnc1 | inconclusive [activator, single point]
O=C(/C=C/c1cccs1)c1ccc([N+](=O)[O-])cc1 | inconclusive [activator, partial curve]
COc1ccc(NC(=O)Cn2c(=O)n(CCC(=O)NCCc3ccc(OC)c(OC)c3)c(=O)c3ccccc32)cc1Cl | inconclusive [activator, partial curve]
O=C(NNC(=O)C(Cl)Cl)c1cnn(-c2ccccc2)c1C(F)(F)F | inactive
CCOC(=O)CSc1nc(COc2ccccc2)nc2ccccc12 | inconclusive [activator, single point]
Cc1cccc(C)c1OCc1cc(C(=O)N(Cc2c(C)nn(C)c2C)C2CC2)no1 | inconclusive [activator, single point]
CCCOc1ccc(N2C(=O)CC(NCCNc3ccc([N+](=O)[O-])cn3)C2=O)cc1 (stereo not given) | inconclusive [activator, partial curve]
COc1ccc(NC(=O)c2cc(-c3cc(F)ccc3OC)n[nH]2)c(C)c1 | active: 22.4 µM
Cc1ccc(NC(=O)/C=C/c2ccco2)cc1S(=O)(=O)N1CCCCCC1 | inconclusive [activator, partial curve]
CC1(C)CC(=O)C(C(=O)Cc2ccccc2[N+](=O)[O-])C(=O)C1 | inconclusive [activator, partial curve, poor fit]
CN(C)c1ccc(/C=C2\c3ccccc3C(=O)N2c2ccccc2)cn1 | inconclusive [activator, full curve, poor fit]
CC(Sc1ccc(Cl)cc1)C(=O)NCc1ccc2c(c1)OCO2 (stereo not given) | inconclusive [activator, single point]
CC(C)=CCC/C(C)=C/CNC(=O)C[C@H]1C[C@H](C(=O)N2CCOCC2)[C@@]2(C)c3[nH]c4ccc(Cl)cc4c3CCN2C1=O | inconclusive [activator, single point]
Cc1occc1C(=O)Nc1cccc(C(F)(F)F)c1 | inconclusive [activator, partial curve, poor fit]
Cc1ccc(N2CC(NC(=O)c3ccc(Br)o3)CC2=O)cc1C (stereo not given) | inconclusive [activator, partial curve]
CC(C)(C)OC(=O)N1CCCC(C(=O)Nc2ccc(C(=O)NC3CC3)cc2)C1 (stereo not given) | inactive
COc1ccc(N=Nc2nc3cc(Br)c(Br)cc3n2C)c(OC)c1 | inconclusive [activator, single point]

SMILES | Potency
CCOCC(=O)Nc1cc(C(F)(F)F)ccc1Oc1cccc(Br)c1 | inconclusive [activator, partial curve]
Cc1ccc(S(=O)(=O)N2CCN=C2SCc2ccccc2)cc1 | inconclusive [activator, single point]
Cc1ccc2c(c1)c(=O)c(C(=O)c1ccncc1)cn2CC(=O)Nc1ccc(C(C)C)cc1 | inactive
COc1cccc(N2CCN(C(=O)Cn3cnc4onc(-c5ccc(F)cc5)c4c3=O)CC2)c1 | inconclusive [activator, single point]
COc1ccc(CSc2nc3nc(C)cc(C)n3n2)cc1F | inconclusive [activator, single point]
N#Cc1ccccc1/C=N/Nc1nc(-c2ccccc2)c2cc(Cl)ccc2n1 | inconclusive [activator, single point]
COc1ccc(CNc2oc(COc3cccc(C)c3)nc2C#N)cc1 | active: 22.4 µM
O=C1Cc2ccccc2C(=O)N1Cc1cccc(Cl)c1 | active: 12.6 µM
CCN(C(=O)c1c(OC)cccc1OC)c1nnc(-c2cccnc2)s1 | inconclusive [activator, single point]
COc1ccccc1-c1nnc(C2CCN(S(=O)(=O)c3ccccc3)CC2)o1 | inconclusive [activator, partial curve]
COC(=O)c1c(C)oc(C)c1S(=O)(=O)Nc1ccc(C(C)C)cc1 | inconclusive [activator, single point]
CCOC(=O)c1c(C)nc2sc3c(=O)n(-c4ccc(OC)cc4)cnc3c2c1-c1ccc(OC)cc1 | inactive
CCOC(=O)CC(=O)CSc1nc2ccccc2c(=O)n1CCc1ccccc1 | inconclusive [activator, full curve, poor fit]
Cc1cc([N+](=O)[O-])nn1CC(=O)NNC(=S)Nc1ccc(F)cc1 | inconclusive [activator, partial curve]
COc1cccc(CNC(=O)CN(c2ccc(C(C)C)cc2)S(=O)(=O)c2c(C)n[nH]c2C)c1 | inconclusive [activator, partial curve]
Cn1c(=O)c(=O)n(C)c2cc(N3CCCC3)c(NC(=O)c3ccc(C(C)(C)C)cc3)cc21 | inconclusive [activator, single point]
CC(C)n1nc(C(=O)NC2CCCCCC2)c2ccccc2c1=O | active: 22.4 µM
O=C(CC1CCCCC1)NCCOc1ccccc1 | inconclusive [activator, partial curve]
CNC(=O)c1cccc(NC(=O)c2cc(-c3ccccc3)nc3c2cnn3C(C)C)c1 | inconclusive [activator, partial curve]
CCc1nc2ccc(C(=O)NCCCn3ccnc3)cn2c1N(CC)CCOC | inconclusive [activator, partial curve, poor fit]
